Among all 44,000 compounds or so, about 340 (0.77%) were called active. Not shown: some 5% with an inconclusive outcome. Calls come from the whole dose curve; as a rule, active = well fitted inhibition curve with a large enough effect; inconclusive = small, poorly fitted or top-dose-only effect; inactive = flat fitted curve, though single readings scatter. The list shows a part of the results.
Assay: Acumen qHTS Assay for Inhibitors of the mTORC1 Signaling Pathway in MEF (Tsc2-/-, p53-/-) Cells: Sytravon;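 note: plate controls were DMSO for no effect and rapamycin for full effect; nearly all actives have a fitted effect of over 50% in size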
Conditions: phospho-rpS6 immunofluorescence/PI, 24 h; series mostly up to 38.3 µM; activity change, negative = inhibition: at the top concentration
Summary of the method: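 Tsc2-/-, p53-/- MEFs (empty-vector stable line) in DMEM + 10% FBS were treated with compounds 24 h at 37 degree Celsius, fixed, and immunostained for phospho-rpS6 (Alexa-488) with propidium iodide counterstain. Laser-scanning cytometry gave % positive cells, normalized against 7.5 nM rapamycin and DMSO.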

Activity change, negative = inhibition, inactive:
COc1ccc(NC(=O)CSc2nnc(NC(=O)Nc3ccccc3)s2)c(OC)c1 0.0486%
CCc1ccc(NC(=O)CSc2nc3ccccc3nc2Cc2ccccc2OC)cc1 -0.407%
Cc1cc(C)cc(NC(=O)N2CCN3CCCCC3C2)c1 (stereo not drawn) 0.177%
CCOC(=O)c1ccc(NC(=O)c2c(NCc3sccc3C)sc3c2CCCCC3)cc1 -2.04%
CC(C)(C)c1ccc(C(=O)NC(Cc2c[nH]c3ccccc23)C(=O)OCC(=O)c2ccccc2)cc1 (stereo not drawn) 2.06%
O=C(NC1CCCCC1)c1c[nH]c2ccc(S(=O)(=O)Nc3ccccc3F)cc2c1=O 3.28%
CC1CCCN(c2cc3c(cc2F)c(=O)c(S(=O)(=O)c2cccc(Cl)c2)cn3C)C1 (stereo not drawn) 0.165%
COc1ccc(Cn2c(=O)[nH]c3cc(C(=O)N4CCN(c5cccc(OC)c5)CC4)ccc3c2=O)cc1 -15.3%
Cn1cc(C(=O)NCc2ccc(Cl)cc2)c(=O)c2cc(S(=O)(=O)N3CCCCCC3)ccc21 -8.13%
COc1cccc(C(=O)Nc2cc3cc(OC)ccc3oc2=O)c1 -0.069%
Cc1cc(C)c2c(n1)SCCN2C(=O)Nc1ccc(C(=O)Nc2cc(Cl)ccc2C)cc1 -1.04%
Cc1cc(C(=O)NCCc2ccc(Cl)cc2)c2c(C)nn(-c3cccc(F)c3)c2n1 2.77%
COC(=O)c1cc2sc(Cl)cc2n1Cc1nc(-c2ccc(OC)cc2)oc1C 3.65%
COc1ccc(N(CC(=O)NCCc2cccc(C)c2)S(=O)(=O)c2c(C)noc2C)cc1 -0.341%
Cc1ccc(Cl)cc1NC(=O)COCc1cc(-c2ccco2)on1 -9.64%
CCCCSCCCNC(=O)CN1C(=O)COc2ccc(S(=O)(=O)N3CCC(C)CC3)cc21 -2%
O=C(Nc1nnc(S(=O)(=O)N2CCN(c3ccc(F)cc3)CC2)s1)c1ccc(Cl)cc1 6.76%
Cc1ccc(C(=O)Nc2ccc(C(=O)OCc3cc(=O)n4ccsc4n3)cc2)cc1 0%
COC(=O)c1ccc(NC(=O)Cn2nc(C(=O)Nc3ccc(C)cc3)ccc2=O)cc1 5.45%
COc1ccccc1N1CCN(c2ncnc3c2nc2n3CCCC2)CC1 -19.8%
Cc1ccc(NC(=O)Cn2c(CCC(=O)O)ccc2-c2ccc(Cl)cc2)cc1 0.628%
Cc1ccc(Cn2cc(CCC(=O)NCc3ccccc3F)c3ccccc32)cc1 -1.38%
CCN(CC)S(=O)(=O)c1ccc2c(c1)N(CC(=O)N(C)Cc1ccccc1)C(=O)CO2 1.53%
O=C(CNC(=O)c1ccc(Cl)cc1)OCc1cc(=O)n2ccsc2n1 -9.39%
COc1ccc(-c2[nH]c3c(c2-c2c(-n4cccc4)n(C)c(=O)n(C)c2=O)c(=O)n(C)c(=O)n3C)cc1 -1.22%
COc1cccc(CNC(=O)C(NS(=O)(=O)c2ccc3c(c2)oc(=O)n3C)C(C)C)c1 (stereo not drawn) -2.17%
COc1ccc(O)c(C2Nc3ccccc3-n3c(-c4ccccc4)c4c(=O)n(C)c(=O)n(C)c4c32)c1 (stereo not drawn) -15.2%
COc1ccc(S(=O)(=O)Nc2cccc(-c3ccc(N4CCCCCC4)nn3)c2)cc1 0.653%
Cc1c(C(=O)OCC2CCCCC2)[nH]c2c1C(=O)CC(c1ccc(Cl)cc1)C2 (stereo not drawn) 1.44%
Cc1cccc(NC(=O)CSc2nc(C3CCCC3)nc3c2c(=O)n(C)c(=O)n3C)c1C -5.51%
Cc1nnsc1C(=O)Oc1ccc(C(C)C)cc1 0.586%
COc1ccc2c(c1)-c1nc(NC(=O)c3ccccc3F)sc1CC2 -2.65%
CCN(CC)C(=O)c1sc2c(c1C)c(=O)n(-c1ccc(C)c(C)c1)c(=O)n2Cc1cc(=O)n2c(C)cccc2n1 -3.75%
CCn1c(=O)cc(OCC(=O)NCc2ccccc2Cl)c2ccccc21 2.8%
COc1ccc(CNC(=O)CSc2ncc3c(n2)-c2cc(Cl)ccc2N(Cc2ccccc2)S3(=O)=O)cc1OC 0.43%
COc1ccccc1NC(=O)Cn1c(=O)n(CCc2ccccc2)c(=O)c2c3c(sc21)CN(C(C)=O)CC3 0.714%
Cc1ccc(Cn2cc(/C=C(/C#N)C(=O)Nc3cccc(Cl)c3)c3ccccc32)cc1 -4.24%
O=C(c1ccccc1)n1nc(-c2ccco2)nc1NCc1cccs1 1.96%
CCC(=O)OCc1cnc(C)c2oc(=O)c(C(=O)Nc3ccccc3C(F)(F)F)cc12 11.1%
Cc1ccc(S(=O)(=O)N2CCc3cc(C(=O)Nc4ccc(C)c(C)c4)ccc32)cc1 1.57%
O=c1cc(-c2ccccc2)nc2cc(-c3ccc(F)cc3)[nH]n12 -24.6%
Cc1cccc(N(C)C(=O)CN(C)S(=O)(=O)c2ccc3[nH]c4c(c3c2)CCCC4)c1 -2.91%
COc1cc2ccccc2cc1C(=O)Nc1cc(-c2nc3ccccc3o2)ccc1C -2.38%
COc1ccc(CC(=O)Nc2c(C(=O)Nc3ccc(F)cc3)oc3ccccc23)cc1OC -19.1%
COc1ccc(OC)c(CCNC(=O)CN2C(=O)COc3ccc(S(=O)(=O)N4CCC(C)CC4)cc32)c1 -6.69%
CCCCNc1nc(Oc2ccc(OCCC)nn2)nc(N(C)C)n1 -21.7%
O=C(CCSCc1ccccc1F)N1CCN(c2ccc(Cl)cc2)CC1 6.13%
Cc1nn(-c2ccc(N3CCCC3)nn2)c(C)c1CCC(=O)NCc1ccccc1F -10.1%
COc1ccc(-c2nc3ccccc3o2)cc1NC(=O)CSc1ccc(Cl)cc1 7.43%
CCOc1ccccc1NC(=O)c1sc2nc(-c3ccc(OC)cc3)ccc2c1N -0.347%
CCCN1CCN(CCNC(=O)Nc2cc(C)ccc2OC)CC1 -1.24%
COc1cc2c(C(=O)Nc3ccc(C)cc3Br)cn(C)c(=O)c2cc1OC -13.8%
CCOC(=O)c1ccc(NC2=CC(c3ccc(O)c(OCC)c3)N(c3ccc(C(=O)OCC)cc3)C2=O)cc1 (stereo not drawn) 1.77%
CCC1CCCCN1CCCNC(=O)c1c(O)nc2c(C)cccn2c1=O (stereo not drawn) 2.44%
COc1ccc(-n2c(/C=C/c3cccc4ccccc34)nc3ccccc3c2=O)cc1Cl 7.21%
Cc1ccccc1C(=O)Nc1nnc(S(=O)(=O)N(C)Cc2ccc(Cl)cc2)s1 1.25%
N#Cc1ccccc1Cn1c(=O)n(CCCCC(=O)NCc2ccc3c(c2)OCO3)c(=O)c2ccccc21 1.82%
Cc1ccc(CNC(=O)c2nc(-c3ccc(Cl)cc3)n3c2CCCCC3)cc1 -1.1%
O=C(Cc1ccc(F)cc1)N1CCC(c2nc3c(nnn3Cc3ccc(F)cc3)c(=O)[nH]2)CC1 1.49%
COc1ccc(OCC(=O)Nc2ccc(O)c(-c3nc4ccccc4s3)c2)cc1 6.04%
O=C(NCCSCc1ccccc1Cl)C1CCN(S(=O)(=O)Cc2ccccc2)CC1 -10.5%
CCCn1c(=O)c2sccc2n2c(CCCC(=O)Nc3ccccc3OCC)nnc12 -0.163%
Cc1ccc(CN(C(=O)COc2ccc(C(C)C)cc2)C2CCS(=O)(=O)C2)o1 (stereo not drawn) -4.97%
COc1ccc(CC(=O)N2CC(=O)Nc3ccc(Br)cc3C2c2ccc(F)cc2)cc1 (stereo not drawn) -0.87%
Cc1cccc(NC(=O)c2sc3nc4c(cc3c2N)CN(Cc2ccccc2)CC4)c1 -6.51%
COc1ccccc1NC(=O)c1oc2ccccc2c1NC(=O)c1ccccc1C(F)(F)F -12.7%
CCOc1ccccc1NC(=O)C(C)Sc1nc(-c2ccccc2)c(C#N)c(=O)[nH]1 (stereo not drawn) -1.34%
Cc1nc2sc(C(=O)Nc3ccc(F)cc3)c(N)c2c(-c2ccc(Br)cc2)c1C(=O)Nc1ccc(Cl)cc1 0%
CCc1cccc(NC(=O)c2cnc(SC)nc2-c2ccccc2)c1 -7.31%
COC(=O)c1ccc(NC(=O)CC2C(=O)N(c3ccc(F)cc3)C(=O)N2Cc2ccc(OC)cc2)cc1 (stereo not drawn) -3.77%
Cc1cc2nc(-c3ccc(OCc4ccc(F)cc4)cc3)cc(C(F)(F)F)n2n1 -8.21%
O=C(Nc1ccc(NC(=O)c2cccs2)cc1)c1cccc(Br)c1 -5.12%
Cc1ccc(C)c(Cn2c(=O)n(Cc3ccc4c(c3)OCO4)c(=O)c3oc4ccccc4c32)c1 -0.847%
CCCCOc1ccc(C(=O)NCCc2sc(-c3cccc(F)c3)nc2C)cc1 0.247%
COc1ccc(-c2cn3nc(N4CCC(C(=O)Nc5cccc(OC)c5)CC4)sc3n2)cc1 5.11%
CCOc1ccc(Sc2cc(C(=O)NC(C)CC)c3ccccc3n2)cc1 (stereo not drawn) -2.54%
COc1ccc(N2CCN(S(=O)(=O)c3ccc(OC)c(-c4noc(C)n4)c3)CC2)cc1 0.21%
O=C(Cn1ncc2c3ccccc3n(Cc3ccc(Cl)cc3)c2c1=O)NCc1cccs1 3.98%
Cc1cc(NC(=O)CSc2nc3c([nH]c4ccccc43)c(=O)n2-c2ccccc2)no1 -0.967%
O=c1cc(-c2ccc(F)cc2)nc(SCc2nc(-c3cccc(Cl)c3)no2)[nH]1 -10.1%
O=C(C1CCCN(S(=O)(=O)c2ccc(Br)s2)C1)N1CCN(c2ccc(F)cc2)CC1 (stereo not drawn) 5.23%
CCc1ccc(NC(=O)c2ccc(F)c(S(=O)(=O)N(C)C3CCCCC3)c2)cc1 -24.3%
CCc1ccc(NC(=O)CSc2nccn2-c2cccc(C)c2C)cc1 1.81%
CC1CN(C(=O)N2CCC(C(=O)NCCC3=CCCCC3)CC2)c2cc(Cl)ccc2O1 (stereo not drawn) 2.33%
Cc1ccc(C2CC(=O)N(Cc3ccccc3)c3c2c(C)nn3-c2nc(C)cc(C)n2)cc1 (stereo not drawn) -13.3%
COc1ccc(NC(=O)CSc2nc3ccncc3[nH]2)c(OC)c1 -13.4%
Cc1ccc(C)n1-c1c(C(=O)NCCCN2CCN(c3ccc(F)cc3)CC2)sc2ncccc12 -5.02%
O=C(C1CCN(S(=O)(=O)Cc2ccccc2)CC1)N1CCN(c2ccc(F)cc2)CC1 -0.384%
Cc1ccc2c(=O)cc(C(=O)Nc3sc4c(c3C(N)=O)CCCC4)oc2c1 -3.37%
Cc1ccc(Cl)cc1-n1ncc2c(NCCCn3ccnc3)ncnc21 5.69%
COc1ccc(C2C(=O)N(C3CCCCC3)CC(=O)N2CCc2ccc(OC)c(OC)c2)cc1 (stereo not drawn) 8.8%
Cc1ccc(C)c(CN2C(=O)C3(c4ccccc42)N(c2cccc(C(F)(F)F)c2)C(=O)CS3(=O)=O)c1 (stereo not drawn) -15.7%
Cc1ccc2oc(-c3cc(NC(=O)c4ccc5c(c4)OCCO5)cc(C)c3O)nc2c1 5.94%

Reference: PubChem BioAssay AID493208 (National Center for Advancing Translational Sciences (NCATS), 2011)
